# Source: the supplement of paper PMC8728848
# Some of the results follow.
# B1: Cohesin-mDCIR (Macaca mulatta) (protein)
# chain: GLDDLDAVRIKVDTVNAKPGDTVRIPVRFSGIPSKGIANCDFVYSYDPNVLEIIEIEPGDIIVDPNPDKSFDTAVYPDRKIIVFLFAEDSGTGAYAITKDGVFATIVAKVKEGAPNGLSVIKFVEVGGFANNDLVEQKTQFFDGGVNVGDTTEPATPTTPVTTPTTTDDLDAASFQKYSQLLEKMTTKDLVHTTLECVKKNMTTEETAWSCCPKNWKPFSSNCYFISTESASWQKSEKDCARMEAHLLVINTREEQDFIFQNLQEESAYFVGLSDPEGQRHWQWVDRTPYNESSTFWHPHEPSDPDERCVVLNFRKTPKRWGWNDVHCIVHQRSVCEMMKIHLHHHHHH
# Experiments:
# Assay in all cases: glycan array binding signal (z-score within array); higher = stronger binding
# Conditions in all cases: glycan notation: IUPAC condensed, linker removed
# Fuc(a1-2)Gal = biological target: Fuc(a1-2)Gal
# Outline: (§1)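 Arrays were curated from the Consortium for Functional Glycomics database, 3228 in total, and kept only where the protein sequence was available. Binding is expressed as a within-array Z-score. This score was averaged across arrays of the same protein sequence at different concentrations or buffers and across linkers, and negative values can be read as non-binding.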
# Fuc(a1-2)Gal(b1-3)GalNAc = biological target: Fuc(a1-2)Gal(b1-3)GalNAc
# Outline: as §1
# [1] = biological target: Fuc(a1-2)Gal(b1-3)GalNAc(a1-3)[Fuc(a1-2)]Gal(b1-4)Glc
# Outline: as §1
# [2] = biological target: Fuc(a1-2)Gal(b1-3)GalNAc(a1-3)[Fuc(a1-2)]Gal(b1-4)GlcNAc
# Outline: as §1
# [3] = biological target: Fuc(a1-2)Gal(b1-3)GalNAc(b1-3)Gal
# Outline: as §1
# [4] = biological target: Fuc(a1-2)Gal(b1-3)GalNAc(b1-3)Gal(a1-4)Gal(b1-4)Glc
# Outline: as §1
# [5] = biological target: Fuc(a1-2)Gal(b1-3)GalNAc(b1-4)[Neu5Ac(a2-3)]Gal(b1-4)Glc
# Outline: as §1
# Fuc(a1-2)Gal(b1-3)GlcNAc = biological target: Fuc(a1-2)Gal(b1-3)GlcNAc
# Outline: as §1
# [6] = biological target: Fuc(a1-2)Gal(b1-3)GlcNAc(b1-2)Man(a1-3)[Fuc(a1-2)Gal(b1-3)GlcNAc(b1-2)Man(a1-6)]Man(b1-4)GlcNAc(b1-4)GlcNAc
# Outline: as §1
# [7] = biological target: Fuc(a1-2)Gal(b1-3)GlcNAc(b1-2)Man(a1-3)[Fuc(a1-2)Gal(b1-3)GlcNAc(b1-2)Man(a1-6)]Man(b1-4)GlcNAc(b1-4)[Fuc(a1-6)]GlcNAc
# Outline: as §1
# [8] = biological target: Fuc(a1-2)Gal(b1-3)GlcNAc(b1-3)Gal(b1-4)Glc
# Outline: as §1
# [9] = biological target: Fuc(a1-2)Gal(b1-3)GlcNAc(b1-3)GalNAc
# Outline: as §1
# [10] = biological target: Fuc(a1-2)Gal(b1-3)GlcNAc(b1-3)[Fuc(a1-2)Gal(b1-3)GlcNAc(b1-6)]GalNAc
# Outline: as §1
# [11] = biological target: Fuc(a1-2)Gal(b1-3)GlcNAc(b1-3)[Gal(b1-4)GlcNAc(b1-6)]Gal(b1-4)Glc
# Outline: as §1
# [12] = biological target: Fuc(a1-2)Gal(b1-3)GlcNAc(b1-3)[Neu5Ac(a2-6)Gal(b1-4)GlcNAc(b1-6)]Gal(b1-4)Glc
# Outline: as §1
# [13] = biological target: Fuc(a1-2)Gal(b1-3)GlcNAc6S
# Outline: as §1
# [14] = biological target: Fuc(a1-2)Gal(b1-3)[Fuc(a1-4)]GlcNAc
# Outline: as §1
# [15] = biological target: Fuc(a1-2)Gal(b1-3)[Fuc(a1-4)]GlcNAc(b1-2)Man(a1-3)[Fuc(a1-2)Gal(b1-3)[Fuc(a1-4)]GlcNAc(b1-2)Man(a1-3)]Man(b1-4)GlcNAc(b1-4)GlcNAc
# Outline: as §1
# [16] = biological target: Fuc(a1-2)Gal(b1-3)[Fuc(a1-4)]GlcNAc(b1-2)Man(a1-3)[Fuc(a1-2)Gal(b1-3)[Fuc(a1-4)]GlcNAc(b1-2)Man(a1-6)]Man(b1-4)GlcNAc(b1-4)[Fuc(a1-6)]GlcNAc(b1-4)[Fuc(a1-6)]GlcNAc
# Outline: as §1
# [17] = biological target: Fuc(a1-2)Gal(b1-3)[Fuc(a1-4)]GlcNAc(b1-3)[Fuc(a1-3)[Gal(b1-4)]GlcNAc(b1-6)]Gal(b1-4)Glc
# Outline: as §1
# [18] = biological target: Fuc(a1-2)Gal(b1-3)[Fuc(a1-4)]GlcNAc(b1-3)[Gal(b1-4)GlcNAc(b1-6)]Gal(b1-4)Glc
# Outline: as §1
# Fuc(a1-2)Gal(b1-4)Glc = biological target: Fuc(a1-2)Gal(b1-4)Glc
# Outline: as §1
# Fuc(a1-2)Gal(b1-4)Glc6S = biological target: Fuc(a1-2)Gal(b1-4)Glc6S
# Outline: as §1
# Fuc(a1-2)Gal(b1-4)GlcNAc = biological target: Fuc(a1-2)Gal(b1-4)GlcNAc
# Outline: as §1
# [19] = biological target: Fuc(a1-2)Gal(b1-4)GlcNAc(b1-2)Man
# Outline: as §1
# [20] = biological target: Fuc(a1-2)Gal(b1-4)GlcNAc(b1-2)Man(a1-3)[Fuc(a1-2)Gal(b1-4)GlcNAc(b1-2)Man(a1-6)]Man(b1-4)GlcNAc(b1-4)GlcNAc
# Outline: as §1
# [21] = biological target: Fuc(a1-2)Gal(b1-4)GlcNAc(b1-2)Man(a1-3)[Fuc(a1-2)Gal(b1-4)GlcNAc(b1-2)Man(a1-6)]Man(b1-4)GlcNAc(b1-4)[Fuc(a1-6)]GlcNAc
# Outline: as §1
# [22] = biological target: Fuc(a1-2)Gal(b1-4)GlcNAc(b1-2)[Fuc(a1-2)Gal(b1-4)GlcNAc(b1-4)]Man(a1-3)[Fuc(a1-2)Gal(b1-4)GlcNAc(b1-2)Man(a1-6)]Man(b1-4)GlcNAc(b1-4)GlcNAc
# Outline: as §1
# [23] = biological target: Fuc(a1-2)Gal(b1-4)GlcNAc(b1-3)Gal(b1-4)GlcNAc
# Outline: as §1
# [24] = biological target: Fuc(a1-2)Gal(b1-4)GlcNAc(b1-3)Gal(b1-4)GlcNAc(b1-2)Man(a1-3)[Fuc(a1-2)Gal(b1-4)GlcNAc(b1-3)Gal(b1-4)GlcNAc(b1-2)Man(a1-6)]Man(b1-4)GlcNAc(b1-4)GlcNAc
# Outline: as §1
# [25] = biological target: Fuc(a1-2)Gal(b1-4)GlcNAc(b1-3)Gal(b1-4)GlcNAc(b1-3)Gal(b1-4)GlcNAc
# Outline: as §1
# [26] = biological target: Fuc(a1-2)Gal(b1-4)GlcNAc(b1-3)GalNAc
# Outline: as §1
# [27] = biological target: Fuc(a1-2)Gal(b1-4)GlcNAc(b1-3)[Fuc(a1-2)Gal(b1-4)GlcNAc(b1-6)]GalNAc
# Outline: as §1
# [28] = biological target: Fuc(a1-2)Gal(b1-4)GlcNAc(b1-3)[Fuc(a1-3)[Gal(b1-4)]GlcNAc(b1-6)]Gal(b1-4)Glc
# Outline: as §1
# [29] = biological target: Fuc(a1-2)Gal(b1-4)GlcNAc(b1-6)GalNAc
# Outline: as §1
# [30] = biological target: Fuc(a1-2)Gal(b1-4)GlcNAc6S
# Outline: as §1
# [31] = biological target: Fuc(a1-2)Gal(b1-4)[Fuc(a1-3)]GlcNAc
# Outline: as §1
# [32] = biological target: Fuc(a1-2)Gal(b1-4)[Fuc(a1-3)]GlcNAc(b1-2)Man(a1-3)[Fuc(a1-2)Gal(b1-4)[Fuc(a1-3)]GlcNAc(b1-2)Man(a1-6)]Man(b1-4)GlcNAc(b1-4)[Fuc(a1-6)]GlcNAc
# Outline: as §1
# [33] = biological target: Fuc(a1-2)Gal(b1-4)[Fuc(a1-3)]GlcNAc(b1-2)[Fuc(a1-2)Gal(b1-4)[Fuc(a1-3)]GlcNAc(b1-4)]Man(a1-3)[Fuc(a1-2)Gal(b1-4)[Fuc(a1-3)]GlcNAc(b1-2)Man(a1-6)]Man(b1-4)GlcNAc(b1-4)GlcNAc
# Outline: as §1
# [34] = biological target: Fuc(a1-2)Gal(b1-4)[Fuc(a1-3)]GlcNAc(b1-3)Gal(b1-4)[Fuc(a1-3)]GlcNAc
# Outline: as §1
# [35] = biological target: Fuc(a1-2)Gal(b1-4)[Fuc(a1-3)]GlcNAc(b1-3)Gal(b1-4)[Fuc(a1-3)]GlcNAc(b1-3)Gal(b1-4)[Fuc(a1-3)]GlcNAc
# Outline: as §1
# [36] = biological target: Fuc(a1-2)Gal(b1-4)[Fuc(a1-3)]GlcNAc(b1-3)GalNAc
# Outline: as §1
# [37] = biological target: Fuc(a1-2)Gal(b1-4)[Fuc(a1-3)]GlcNAc(b1-3)[Neu5Ac(a2-6)Gal(b1-4)GlcNAc(b1-6)]Gal(b1-4)Glc
# Outline: as §1
# [38] = biological target: Fuc(a1-2)Gal3S(b1-4)GlcNAc
# Outline: as §1
# [39] = biological target: Fuc(a1-2)Gal6S(b1-3)GlcNAc
# Outline: as §1
binder,measurement,setting,value
B1,glycan array binding signal (z-score),Fuc(a1-2)Gal,0.531
same,glycan array binding signal (z-score),Fuc(a1-2)Gal(b1-3)GalNAc,-0.338
same,glycan array binding signal (z-score),[1],-0.421
same,glycan array binding signal (z-score),[2],-0.43
same,glycan array binding signal (z-score),[3],0.216
same,glycan array binding signal (z-score),[4],-0.245
same,glycan array binding signal (z-score),[5],0.163
same,glycan array binding signal (z-score),Fuc(a1-2)Gal(b1-3)GlcNAc,-0.041
same,glycan array binding signal (z-score),[6],-0.372
same,glycan array binding signal (z-score),[7],-0.352
same,glycan array binding signal (z-score),[8],-0.358
same,glycan array binding signal (z-score),[9],-0.291
same,glycan array binding signal (z-score),[10],-0.376
same,glycan array binding signal (z-score),[11],-0.452
same,glycan array binding signal (z-score),[12],-0.318
same,glycan array binding signal (z-score),[13],-0.407
same,glycan array binding signal (z-score),[14],-0.153
same,glycan array binding signal (z-score),[15],0.232
same,glycan array binding signal (z-score),[16],-0.253
same,glycan array binding signal (z-score),[17],-0.151
same,glycan array binding signal (z-score),[18],-0.246
same,glycan array binding signal (z-score),Fuc(a1-2)Gal(b1-4)Glc,0.107
same,glycan array binding signal (z-score),Fuc(a1-2)Gal(b1-4)Glc6S,-0.318
same,glycan array binding signal (z-score),Fuc(a1-2)Gal(b1-4)GlcNAc,0.219
same,glycan array binding signal (z-score),[19],-0.301
same,glycan array binding signal (z-score),[20],-0.037
same,glycan array binding signal (z-score),[21],0.245
same,glycan array binding signal (z-score),[22],-0.119
same,glycan array binding signal (z-score),[23],-0.033
same,glycan array binding signal (z-score),[24],-0.215
same,glycan array binding signal (z-score),[25],-0.381
same,glycan array binding signal (z-score),[26],-0.325
same,glycan array binding signal (z-score),[27],0.129
same,glycan array binding signal (z-score),[28],-0.368
same,glycan array binding signal (z-score),[29],0.7
same,glycan array binding signal (z-score),[30],-0.269
same,glycan array binding signal (z-score),[31],0.229
same,glycan array binding signal (z-score),[32],-0.015
same,glycan array binding signal (z-score),[33],-0.234
same,glycan array binding signal (z-score),[34],-0.412
same,glycan array binding signal (z-score),[35],-0.414
same,glycan array binding signal (z-score),[36],-0.393
same,glycan array binding signal (z-score),[37],-0.446
same,glycan array binding signal (z-score),[38],-0.161
same,glycan array binding signal (z-score),[39],0.324
